# Results taken from the supplement of paper PMC8728848.
# Some of the results follow.
# What was measured:
# Test in all cases: glycan array binding signal (z-score within array); higher = stronger binding
# Conditions in all cases: glycan notation: IUPAC condensed, linker removed
# [1] = molecular target: Man(a1-3)[Man(a1-6)]Man(a1-6)[Man(a1-2)Man(a1-3)]Man(b1-4)GlcNAc(b1-4)GlcNAc
# How it was run: (§1)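 Columns mapping to the same glycan were averaged after glycan names were converted to IUPAC-condensed notation. The data come from 3228 arrays in the Consortium for Functional Glycomics database, limited to those with an available protein sequence. Binding is reported as a within-array Z-score averaged across arrays of one protein sequence and across linkers.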
# [2] = molecular target: Man(a1-3)[Man(a1-6)]Man(a1-6)[Man(a1-3)]Man
# How it was run: as §1
# [3] = molecular target: Man(a1-3)[Man(a1-6)]Man(a1-6)[Man(a1-3)]Man(b1-4)GlcNAc(b1-4)GlcNAc
# How it was run: as §1
# [4] = molecular target: Man(a1-3)[Man(a1-6)]Man(b1-4)GlcNAc(b1-4)GlcNAc
# How it was run: as §1
# [5] = molecular target: Man(a1-3)[Man(a1-6)]Man(b1-4)GlcNAc(b1-4)[Fuc(a1-6)]GlcNAc
# How it was run: as §1
# Man(a1-6)Man = molecular target: Man(a1-6)Man
# How it was run: as §1
# Man(b1-4)GlcNAc = molecular target: Man(b1-4)GlcNAc
# How it was run: as §1
# MurNAc(b1-4)GlcNAc = molecular target: MurNAc(b1-4)GlcNAc
# How it was run: as §1
# Neu5Ac(a2-3)Gal = molecular target: Neu5Ac(a2-3)Gal
# How it was run: as §1
# [6] = molecular target: Neu5Ac(a2-3)Gal(b1-3)GalNAc
# How it was run: as §1
# [7] = molecular target: Neu5Ac(a2-3)Gal(b1-3)GalNAc(b1-3)Gal(a1-4)Gal(b1-4)Glc
# How it was run: as §1
# [8] = molecular target: Neu5Ac(a2-3)Gal(b1-3)GalNAc(b1-4)Gal(b1-4)Glc
# How it was run: as §1
# [9] = molecular target: Neu5Ac(a2-3)Gal(b1-3)GalNAc(b1-4)[Neu5Ac(a2-3)]Gal(b1-4)Glc
# How it was run: as §1
# [10] = molecular target: Neu5Ac(a2-3)Gal(b1-3)GalNAc(b1-4)[Neu5Ac(a2-8)Neu5Ac(a2-3)]Gal(b1-4)Glc
# How it was run: as §1
# [11] = molecular target: Neu5Ac(a2-3)Gal(b1-3)GalNAc6S
# How it was run: as §1
# [12] = molecular target: Neu5Ac(a2-3)Gal(b1-3)GlcNAc
# How it was run: as §1
# [13] = molecular target: Neu5Ac(a2-3)Gal(b1-3)GlcNAc(b1-2)Man
# How it was run: as §1
# [14] = molecular target: Neu5Ac(a2-3)Gal(b1-3)GlcNAc(b1-2)Man(a1-3)[GlcNAc(b1-4)][Neu5Ac(a2-3)Gal(b1-3)GlcNAc(b1-2)Man(a1-6)]Man(b1-4)GlcNAc(b1-4)GlcNAc
# How it was run: as §1
# [15] = molecular target: Neu5Ac(a2-3)Gal(b1-3)GlcNAc(b1-2)Man(a1-3)[Neu5Ac(a2-3)Gal(b1-3)GlcNAc(b1-2)Man(a1-6)]Man(b1-4)GlcNAc(b1-4)GlcNAc
# How it was run: as §1
# [16] = molecular target: Neu5Ac(a2-3)Gal(b1-3)GlcNAc(b1-2)[Neu5Ac(a2-3)Gal(b1-3)GlcNAc(b1-4)]Man(a1-6)[Neu5Ac(a2-3)Gal(b1-3)GlcNAc(b1-2)Man(a1-3)]Man(b1-4)GlcNAc(b1-4)GlcNAc
# How it was run: as §1
# [17] = molecular target: Neu5Ac(a2-3)Gal(b1-3)GlcNAc(b1-3)Gal(b1-3)GlcNAc
# How it was run: as §1
# [18] = molecular target: Neu5Ac(a2-3)Gal(b1-3)GlcNAc(b1-3)Gal(b1-4)GlcNAc
# How it was run: as §1
# [19] = molecular target: Neu5Ac(a2-3)Gal(b1-3)GlcNAc(b1-3)GalNAc
# How it was run: as §1
# [20] = molecular target: Neu5Ac(a2-3)Gal(b1-3)GlcNAc(b1-4)Gal(b1-4)Glc
# How it was run: as §1
# [21] = molecular target: Neu5Ac(a2-3)Gal(b1-3)GlcNAc(b1-6)GalNAc
# How it was run: as §1
# [22] = molecular target: Neu5Ac(a2-3)Gal(b1-3)GlcNAc6S
# How it was run: as §1
# [23] = molecular target: Neu5Ac(a2-3)Gal(b1-3)[Fuc(a1-4)]GlcNAc
# How it was run: as §1
# [24] = molecular target: Neu5Ac(a2-3)Gal(b1-3)[Fuc(a1-4)]GlcNAc(b1-3)Gal(b1-3)[Fuc(a1-4)]GlcNAc
# How it was run: as §1
# [25] = molecular target: Neu5Ac(a2-3)Gal(b1-3)[Fuc(a1-4)]GlcNAc(b1-3)Gal(b1-4)[Fuc(a1-3)]GlcNAc
# How it was run: as §1
# [26] = molecular target: Neu5Ac(a2-3)Gal(b1-3)[GlcNAc(b1-6)]GalNAc
# How it was run: as §1
# [27] = molecular target: Neu5Ac(a2-3)Gal(b1-3)[Neu5Ac(a2-6)]GalNAc
# How it was run: as §1
# [28] = molecular target: Neu5Ac(a2-3)Gal(b1-3)[Neu5Ac(a2-6)]GlcNAc(b1-3)[Fuc(a1-3)[Gal(b1-4)]GlcNAc(b1-6)]Gal(b1-4)Glc
# How it was run: as §1
# [29] = molecular target: Neu5Ac(a2-3)Gal(b1-3)]Neu5Ac(a2-3)Gal(b1-4)]GlcNAc
# How it was run: as §1
# Neu5Ac(a2-3)Gal(b1-4)Glc = molecular target: Neu5Ac(a2-3)Gal(b1-4)Glc
# How it was run: as §1
# [30] = molecular target: Neu5Ac(a2-3)Gal(b1-4)GlcNAc
# How it was run: as §1
# [31] = molecular target: Neu5Ac(a2-3)Gal(b1-4)GlcNAc(b1-2)Man
# How it was run: as §1
# [32] = molecular target: Neu5Ac(a2-3)Gal(b1-4)GlcNAc(b1-2)Man(a1-3)[GlcNAc(b1-4)][Neu5Ac(a2-3)Gal(b1-4)GlcNAc(b1-2)Man(a1-6)]Man(b1-4)GlcNAc(b1-4)GlcNAc
# How it was run: as §1
# [33] = molecular target: Neu5Ac(a2-3)Gal(b1-4)GlcNAc(b1-2)Man(a1-3)[Neu5Ac(a2-3)Gal(b1-4)GlcNAc(b1-2)Man(a1-6)]Man(b1-4)GlcNAc(b1-4)GlcNAc
# How it was run: as §1
binder,measurement,setting,value
"Epa9 (Candida glabrata), CAGL0A01386g (protein) MGSSHHHHHHSSGLVPRGSHMDITPFAHYPRPEGCSSPPNAVSVGLHMDLYNYPYLYVKNPRTGFTNDTDSDADGETDGDSAGGIEGRAGQCWNPEYQDPNFPRYGYKKYGSFGSSDHVNGKISWDHNEFKEGCKPIMARLPTAYNYPAKITFSNFTMVLSGYFKPKSTGLYKFEIHADDFILFNFGSKNAFECCNREESIDNFGPYVAYAMWPNEADQELEVYLFEDSYYPIRLFYNNRDYHSKFMVGFYPPNTEEITYDFDGYLYMLDDTGNECKDSIRYKTVCDD",glycan array binding signal (z-score),[1],-0.344
same,glycan array binding signal (z-score),[2],-0.481
same,glycan array binding signal (z-score),[3],-0.434
same,glycan array binding signal (z-score),[4],-0.45
same,glycan array binding signal (z-score),[5],-0.401
same,glycan array binding signal (z-score),Man(a1-6)Man,-0.428
same,glycan array binding signal (z-score),Man(b1-4)GlcNAc,-0.441
same,glycan array binding signal (z-score),MurNAc(b1-4)GlcNAc,-0.475
same,glycan array binding signal (z-score),Neu5Ac(a2-3)Gal,-0.474
same,glycan array binding signal (z-score),[6],-0.476
same,glycan array binding signal (z-score),[7],-0.459
same,glycan array binding signal (z-score),[8],-0.494
same,glycan array binding signal (z-score),[9],-0.457
same,glycan array binding signal (z-score),[10],-0.42
same,glycan array binding signal (z-score),[11],-0.462
same,glycan array binding signal (z-score),[12],-0.455
same,glycan array binding signal (z-score),[13],-0.455
same,glycan array binding signal (z-score),[14],-0.445
same,glycan array binding signal (z-score),[15],-0.432
same,glycan array binding signal (z-score),[16],-0.412
same,glycan array binding signal (z-score),[17],-0.456
same,glycan array binding signal (z-score),[18],-0.482
same,glycan array binding signal (z-score),[19],-0.458
same,glycan array binding signal (z-score),[20],-0.453
same,glycan array binding signal (z-score),[21],-0.431
same,glycan array binding signal (z-score),[22],-0.496
same,glycan array binding signal (z-score),[23],-0.437
same,glycan array binding signal (z-score),[24],-0.453
same,glycan array binding signal (z-score),[25],-0.456
same,glycan array binding signal (z-score),[26],-0.468
same,glycan array binding signal (z-score),[27],-0.437
same,glycan array binding signal (z-score),[28],-0.394
same,glycan array binding signal (z-score),[29],-0.423
same,glycan array binding signal (z-score),Neu5Ac(a2-3)Gal(b1-4)Glc,-0.47
same,glycan array binding signal (z-score),[30],-0.476
same,glycan array binding signal (z-score),[31],-0.427
same,glycan array binding signal (z-score),[32],-0.474
same,glycan array binding signal (z-score),[33],-0.453
